The whole screen tested about 310,000 compounds, of which about 14,000 (4.5%) showed an effect of 50% or more. The effect is printed as a negative number. This is one part of the list.
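Further: peak tail current of the secondary pulse compared with the same well before compound.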

The target of this assay is human ether-à-go-go-related gene (hERG) potassium channel (human, UniProt Q12809). Nature of the assay: primary screen, population patch clamp on CHO cells stably expressing hERG.
Sequence of human ether-à-go-go-related gene (hERG) potassium channel (Q12809 whole entry, looked up): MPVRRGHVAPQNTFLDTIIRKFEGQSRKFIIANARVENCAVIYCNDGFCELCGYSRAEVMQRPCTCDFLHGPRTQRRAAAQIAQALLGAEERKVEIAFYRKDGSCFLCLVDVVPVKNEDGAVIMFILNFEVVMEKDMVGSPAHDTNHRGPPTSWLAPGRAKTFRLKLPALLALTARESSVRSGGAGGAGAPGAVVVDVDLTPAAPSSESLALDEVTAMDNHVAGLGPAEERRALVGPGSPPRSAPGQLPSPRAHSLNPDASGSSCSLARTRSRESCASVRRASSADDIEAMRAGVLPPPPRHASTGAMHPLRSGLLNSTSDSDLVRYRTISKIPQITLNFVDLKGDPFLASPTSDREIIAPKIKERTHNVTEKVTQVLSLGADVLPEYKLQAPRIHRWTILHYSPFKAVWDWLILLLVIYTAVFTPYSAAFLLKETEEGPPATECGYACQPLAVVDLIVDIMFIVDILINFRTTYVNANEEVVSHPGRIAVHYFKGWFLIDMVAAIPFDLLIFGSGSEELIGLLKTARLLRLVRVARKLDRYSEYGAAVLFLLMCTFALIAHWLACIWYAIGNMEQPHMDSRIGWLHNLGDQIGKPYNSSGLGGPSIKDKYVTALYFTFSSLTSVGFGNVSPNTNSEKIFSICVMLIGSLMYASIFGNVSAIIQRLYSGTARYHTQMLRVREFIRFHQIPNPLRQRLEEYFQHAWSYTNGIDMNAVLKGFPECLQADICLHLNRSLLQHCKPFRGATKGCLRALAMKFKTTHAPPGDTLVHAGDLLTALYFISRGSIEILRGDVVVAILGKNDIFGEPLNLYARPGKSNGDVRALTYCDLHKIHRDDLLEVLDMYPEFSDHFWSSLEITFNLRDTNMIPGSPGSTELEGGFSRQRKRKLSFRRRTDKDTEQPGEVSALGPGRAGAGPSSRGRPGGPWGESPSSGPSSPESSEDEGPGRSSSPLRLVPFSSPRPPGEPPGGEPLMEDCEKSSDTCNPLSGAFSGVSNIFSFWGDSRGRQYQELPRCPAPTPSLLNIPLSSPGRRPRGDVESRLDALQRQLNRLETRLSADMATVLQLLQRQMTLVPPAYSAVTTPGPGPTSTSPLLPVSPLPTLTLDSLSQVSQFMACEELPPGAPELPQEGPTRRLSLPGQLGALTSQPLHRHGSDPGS
`CN(C)C(=O)C12CCC(C)(C(=O)C1Br)C2(C)C` (stereo not drawn): the “hERG current change (%, negative = inhibition) at 10uM” value is listed as 16.4%.
Take `c1ccc(CCCCN2C(Nc3ccccc3)=NC[C@@H]2Cc2ccccc2)cc1`: the “hERG current change (%, negative = inhibition) at 10uM” value is -71.5%.
Next, `COc1ccc(OC)c(C2=NS(=O)(=O)N(C)C(C(=O)NCc3cccs3)=C2)c1`: -28%.
Turning to `CC(C)Cc1cc(C(=O)N2CCCC(C(=O)c3cc(F)ccc3F)C2)no1` (stereo not drawn), the “hERG current change (%, negative = inhibition) at 10uM” value is recorded as -26.2%.
For the compound `Cc1nc(NN)nc(NCc2ccccc2)n1`, the “hERG current change (%, negative = inhibition) at 10uM” value was 1.47%.
For `CN1CCC(CNC(=O)Nc2csc3ccccc23)CC1`, the “hERG current change (%, negative = inhibition) at 10uM” value is listed as -8.26%.
As for `CC(C)c1ccc(Nc2nnns2)cc1`, the “hERG current change (%, negative = inhibition) at 10uM” value came out at 11.7%.
Regarding `Fc1ccc(-n2cc(-c3ccccc3)c3c(=S)nc[nH]c32)cc1`, the “hERG current change (%, negative = inhibition) at 10uM” value is on record as -3.14%.
With `CCN(CC)C(=O)c1[nH]cnc1C(=O)N[C@@H](Cc1ccccc1)C(=O)OCc1ccccc1` the figure was 9.64%; with `Cc1nc2cc(NC(=O)CS(=O)(=O)c3ccccc3)ccc2s1`, -23.8%; with `CCCCN(C)C(=O)C(Cc1ccccc1)NS(=O)(=O)c1ccc2c(c1)c(=O)n(C)c(=O)n2C` (stereo not drawn), -17%.
Take `COc1ccc(CNC(=O)COC(=O)c2n[nH]c3ccccc23)cc1OC`: the “hERG current change (%, negative = inhibition) at 10uM” value is -29.9%.
Turning to `COc1ccc(CCNC(=O)C2CC(=O)N(C3CCCCC3)C2)cc1OC` (stereo not drawn), the “hERG current change (%, negative = inhibition) at 10uM” value was determined as 27.5%.
With `CC1(C)CC(O)CC(C)(C)N1CC(O)COCCOc1ccc(Br)cc1` (stereo not drawn) the figure was -42.4%; with `COc1ccc(C2=NO[C@@H]3C(=O)N(Cc4ccccc4)C(=O)[C@H]23)cc1OC`, -1.95%.
`Cc1cc(C)c2cc(CNC3CCCC3)c(Cl)nc2c1`: the “hERG current change (%, negative = inhibition) at 10uM” value is given as -23.3%.
In the case of `COc1ccccc1CCNC1CCC(C(C)(C)C)CC1` (stereo not drawn), the “hERG current change (%, negative = inhibition) at 10uM” value was -32.6%.
As to `CCNc1nc(NC(C)CC)nc(Oc2ccc(=O)[nH]n2)n1` (stereo not drawn), the “hERG current change (%, negative = inhibition) at 10uM” value was found to be 0.906%.
For the compound `CN1CCN(CCC(=O)Nc2ccc(C3CCCC3)cc2)CC1.Cl`, the “hERG current change (%, negative = inhibition) at 10uM” value was -55.1%.
For `O=C(COc1ccccc1)N=C1SC2CS(=O)(=O)CC2N1c1cccc(F)c1` (stereo not drawn), the “hERG current change (%, negative = inhibition) at 10uM” value came to 20.2%.
For the compound `Cc1ccc(S(=O)(=O)N2CCN(C(=O)C(C)Cn3nc(C)c(C)c3C)CC2)cc1` (stereo not drawn), the “hERG current change (%, negative = inhibition) at 10uM” value worked out at 5.7%.
`Cl.O=C(O)Cc1cnc[nH]1`: the “hERG current change (%, negative = inhibition) at 10uM” value came to 39.6%.
As for `CC(C)(C)N(Cc1cc2ccccc2[nH]c1=O)C(=O)c1ccco1`, the “hERG current change (%, negative = inhibition) at 10uM” value is on record as 8.21%.
With `C/C(=N\Nc1ccc(F)cc1F)c1cccs1` the figure was 40.9%; with `[O-][n+]1c2ccccc2c2n1CCCN=C2c1ccc(Cl)cc1`, -30%; with `CCn1c(SCC(=O)NC2=NCCS2)nnc1C(C)NC(=O)c1ccccc1Br` (stereo not drawn), 14.6%.
For `COC(=O)C1=CN(Cc2ccccc2)C=C(C(=O)OC)C1c1ccc(O)c(OC)c1`, the “hERG current change (%, negative = inhibition) at 10uM” value is reported as -15.2%.
As to `COC(=O)c1cc(S(=O)(=O)N(C)C2CCCCC2)cn1C`, the “hERG current change (%, negative = inhibition) at 10uM” value came out at 1.13%.
Turning to `O=C(CC(C(=O)O)C1CCCO1)Nc1cccc(C(F)(F)F)c1` (stereo not drawn), the “hERG current change (%, negative = inhibition) at 10uM” value was found to be 5.84%.
As for `Cc1ccc(S(=O)(=O)Cc2ccc(C(=O)N3CCN(c4ccccn4)CC3)o2)cc1`, the “hERG current change (%, negative = inhibition) at 10uM” value is recorded as -8.71%.
Next, `COCCc1nc2ccc(C(=O)N3CCCCC3COC)cc2o1` (stereo not drawn): 8.82%; `COc1cc(NC(=O)CCc2nnc3ccc(N4CCOCC4)nn23)cc(OC)c1OC`: 14.2%.
For `O=C(/C=C/c1cccc([N+](=O)[O-])c1)NC(=S)Nc1cccc(NC(=O)c2ccccc2Cl)c1`, the “hERG current change (%, negative = inhibition) at 10uM” value stood at 8.47%.
Next, `CC(Nc1nc(-c2ccc3c(c2)NC(=O)CO3)cs1)c1ccccc1` (stereo not drawn): 11.5%; `O=C(CSc1nc2scc(-c3ccco3)c2c(=O)n1-c1ccccc1)NCC1CCCO1` (stereo not drawn): -32.7%; `Cc1ccc(C)c(OC(=O)C2CSC3(C)CCC(=O)N23)c1C` (stereo not drawn): -7.46%.
Take `COc1ccc(C(=O)NCC2CCCO2)cc1S(=O)(=O)N1CCCc2ccccc21` (stereo not drawn): the “hERG current change (%, negative = inhibition) at 10uM” value is on record as -14.3%.
With `CCOCCCNC(=S)Nc1ccc2nc(N3CCCC3)cc(C)c2c1` the figure was -73.3%; with `COc1c(C)cc(C(=O)C2CCCN(Cc3cccc(C)n3)C2)cc1C` (stereo not drawn), -48.7%; with `Br.CN1CCN(CC(=O)c2cc(C(C)(C)C)c(O)c(C(C)(C)C)c2)CC1`, -13.3%.
`COc1ccc(N2CCN(C(=O)c3ccccc3)CC2)c([N+](=O)[O-])c1`: the “hERG current change (%, negative = inhibition) at 10uM” value is -67.7%.
In the case of `O=C(COc1ccc2ccc(=O)oc2c1)Nc1cccc(S(=O)(=O)N2CCCCC2)c1`, the “hERG current change (%, negative = inhibition) at 10uM” value is given as 0.0871%.
As for `Cc1ccccc1OCC(=O)NCCNC(=O)c1ccccn1`, the “hERG current change (%, negative = inhibition) at 10uM” value was 6.12%.
Take `O=C1C=C(c2ccc(C(=O)O)cc2)C[C@@H](c2ccc3c(c2)OCO3)C1`: the “hERG current change (%, negative = inhibition) at 10uM” value was determined as 9.47%.
With `Cc1cc(C)c(S(=O)(=O)N2CCN(C(=O)C3COc4ccccc4O3)CC2)c(C)c1` (stereo not drawn), the “hERG current change (%, negative = inhibition) at 10uM” value is reported as -17%.
Consider `O=C(CCn1cccc1)Nc1cc(F)ccc1F`, for which the “hERG current change (%, negative = inhibition) at 10uM” value worked out at 23.3%.
On to `CCOc1ccc(C2C(C(N)=O)=C(C)Nc3ncnn32)cc1OC` (stereo not drawn), for which the “hERG current change (%, negative = inhibition) at 10uM” value is given as 3.16%.
In the case of `Cn1nnnc1Sc1ncnc2scc(-c3ccc[nH]3)c12`, the “hERG current change (%, negative = inhibition) at 10uM” value is -9.69%.
`CN1C(=O)/C(=C/c2cn(CC(=O)NCc3ccco3)c3ccccc23)NC1=S`: the “hERG current change (%, negative = inhibition) at 10uM” value was 15.1%.
Take `CO/N=C/NC(=O)c1ccc([N+](=O)[O-])c(CS(=O)(=O)c2ccc(Cl)cc2)c1`: the “hERG current change (%, negative = inhibition) at 10uM” value is -12.5%.
On to `COCCNC(=O)c1cc2c(=O)[nH]c3ccccc3c2s1`, for which the “hERG current change (%, negative = inhibition) at 10uM” value is 15.7%.
Regarding `Cn1cnnc1SCC(=O)c1cc2ccccc2o1`, the “hERG current change (%, negative = inhibition) at 10uM” value was -2.67%.
Turning to `Br.N=c1n(CC(=O)c2ccc([N+](=O)[O-])cc2)c2ccccc2n1Cc1ccc(Cl)cc1`, the “hERG current change (%, negative = inhibition) at 10uM” value is listed as -14.3%.
With `COc1ccc(Nc2nnc(SCc3cc([N+](=O)[O-])cc4c3OCOC4)s2)cc1`, the “hERG current change (%, negative = inhibition) at 10uM” value is recorded as 8.43%.
With `CN(C)C(=O)c1nc2ccccc2s1` the figure was 15.8%; with `CCOC(=O)c1cnc(SCC(=O)Nc2cccc(OC)c2)nc1N`, -10.5%; with `CCOc1ccc(NC(=S)N2CCCN(Cc3cccc(Cl)c3)C2)cc1`, -17.6%.
With `O=C(NCc1nnnn1-c1ccc(Cl)cc1)c1ccc(Br)o1` the figure was -22.2%.
On to `Cc1cc(SCC(=O)N(C)CC(=O)Nc2ccc(F)cc2)nc2ccccc12`, for which the “hERG current change (%, negative = inhibition) at 10uM” value is recorded as -28.7%.
As for `Cc1noc(C)c1COC(=O)c1ccc2ccccc2n1`, the “hERG current change (%, negative = inhibition) at 10uM” value is listed as -11.9%.
Next, `COC(=O)CCc1c(C)c(C(=O)c2cccc(OC)c2OC)c2ccccn12`: -13.3%; `Cn1ncc(Cl)c1C(=O)NCc1ccc(Cl)cc1`: -13.3%.
With `CN1CCC(N(C)C(=O)CNC(=O)c2ccc(C(C)(C)C)cc2)CC1`, the “hERG current change (%, negative = inhibition) at 10uM” value came out at 22.6%.
Consider `CC(=O)c1ccc(N2CCN(C(=O)c3cc(C)on3)CC2)cc1`, for which the “hERG current change (%, negative = inhibition) at 10uM” value is -41.8%.
As to `CCOc1ccc(N2CC(NS(=O)(=O)c3cccnc3)CC2=O)cc1` (stereo not drawn), the “hERG current change (%, negative = inhibition) at 10uM” value is on record as -9.94%.
For `O=C(O)C1=C[C@@H](c2ccccc2)C[C@@H](OCc2ccc(CO)cc2)O1`, the “hERG current change (%, negative = inhibition) at 10uM” value was 18.6%.
Regarding `C#CCn1c(=NC(=O)c2ccco2)sc2cccc(Cl)c21`, the “hERG current change (%, negative = inhibition) at 10uM” value turned out to be 10.5%.
In the case of `O=C(c1ccc(=O)oc1)N1CCC(C(O)(c2ccccc2)c2ccccc2)CC1`, the “hERG current change (%, negative = inhibition) at 10uM” value is given as -29.2%.
For `COc1ccc(OC)c(-n2c(-c3cc(-c4ccco4)[nH]n3)n[nH]c2=S)c1`, the “hERG current change (%, negative = inhibition) at 10uM” value is reported as 1.18%.
For the compound `NS(=O)(=O)c1ccc(NC(=O)CCC(=O)N2CCOCC2)cc1`, the “hERG current change (%, negative = inhibition) at 10uM” value worked out at 13.7%.
Consider `COc1ccc(OC)c(CCNC(=O)C2CCN(c3ncnc4c3nc3n4CCCCC3)CC2)c1`, for which the “hERG current change (%, negative = inhibition) at 10uM” value is listed as -0.169%.
As to `COC(=O)C1=NNC2(C)C(=O)N(c3ccc(C)cc3)C(=O)C12` (stereo not drawn), the “hERG current change (%, negative = inhibition) at 10uM” value came to 17.7%.
With `O=C(COc1nsnc1N1CCOCC1)Nc1cccc(Cl)c1` the figure was -15.9%; with `COCCNC(=O)c1c[nH]c2ccc(S(=O)(=O)N(C)c3ccc(C)c(C)c3)cc2c1=O`, -9.12%; with `COc1ccc(NC2CCCN(C(=O)CCc3scnc3C)C2)cc1` (stereo not drawn), 12.2%.
Consider `COC(=O)c1[nH]c2cc(OC)ccc2c1NC(=O)CN1CCN(c2cccc(C)c2)C(C)C1` (stereo not drawn), for which the “hERG current change (%, negative = inhibition) at 10uM” value was -0.154%.
Take `COc1ccc(OC)c(-c2cc(C3CCN(c4ncccc4[N+](=O)[O-])CC3)[nH]n2)c1`: the “hERG current change (%, negative = inhibition) at 10uM” value was -3.29%.
Regarding `CCCCCCCCCOC1OC(CO)C(O)C(O)C1NC(C)=O` (stereo not drawn), the “hERG current change (%, negative = inhibition) at 10uM” value turned out to be 12.3%.
In the case of `COCc1nnc(NC(=O)C2CCN(C(=O)c3ccco3)CC2)s1`, the “hERG current change (%, negative = inhibition) at 10uM” value is 27.5%.
Take `Cc1nc2c3ccccc3nc(NNC(=O)CCC(=O)NCCC(C)C)n2n1`: the “hERG current change (%, negative = inhibition) at 10uM” value is -8.51%.
As to `COc1cc(SC)ccc1C(=O)N1CCc2ccccc21`, the “hERG current change (%, negative = inhibition) at 10uM” value is 7.2%.
With `CCOc1ccc(NC(=S)N2CCN(C/C=C/c3ccccc3)CC2)cc1` the figure was -38%; with `CCN1C(=O)[C@H]2[C@H]3[C@H](O)[C@H](O)C/C(=N\O[C@H](C)c4cn([C@H](CO)Cc5ccccc5)nn4)[C@@H]3CC[C@H]2C1=O`, -2.99%.
As for `COc1ccc(C(=O)NCCc2ccccn2)cc1S(=O)(=O)Nc1ccc(Br)cc1`, the “hERG current change (%, negative = inhibition) at 10uM” value is recorded as -21.9%.
On to `O=C(NC(=S)Nc1ccc(CN2CCOCC2)cc1)c1cc2ccccc2o1`, for which the “hERG current change (%, negative = inhibition) at 10uM” value turned out to be 11.7%.
With `CCOc1cc(/C=C2\N=C(SC(C)C(N)=O)N(c3ccc(OC(F)F)cc3)C2=O)ccc1O` (stereo not drawn), the “hERG current change (%, negative = inhibition) at 10uM” value is given as -18.6%.
As to `COc1ccc(C(=O)N2CCC(C(N)=O)CC2)cc1S(=O)(=O)N1CCCC1`, the “hERG current change (%, negative = inhibition) at 10uM” value is 5.5%.

For the origin of these results see PMC4336329 (PLoS ONE, 2015).
